Several values for one entry are separate records, joined by “and”; a condition that tells them apart may be missing. Identical values can stand only once. Hit rate of the full screen: of about 230,000 compounds, about 3,600 (1.6%) were called active. The shares of active, inactive and inconclusive entries below differ from those in the screen. Calls come from the whole dose curve; as a rule, active = well fitted inhibition curve with a large enough effect (not every such curve was filed as active); inconclusive = small, poorly fitted or top-dose-only effect, or another doubt; inactive = no such curve, though single readings can be large or run the other way. Potencies beside an inconclusive call are fits to weak or partial responses and may not hold up. Some compounds were tested as several samples or in several runs, with calls that do not always agree.
Target: Lysine-specific demethylase 4E (Homo sapiens) (UniProt B2RXH2)
Test: qHTS Assay for Inhibitors of Human Jumonji Domain Containing 2E (JMJD2E)
Conditions: JMJD2E catalytic domain, FDH-coupled NADH fluorescence (FDH is formaldehyde dehydrogenase); series mostly up to 57.1 µM; activity change, negative = inhibition: at the top concentration
Note: nearly all actives have a fitted effect of over 50% in size.
Potency is the fitted concentration of half-maximal effect; tags give direction and shape of the fitted curve.
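Throughout, for activity change, negative = inhibition: 0% = wells with enzyme and -100% = buffer wells without enzyme.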

Sequence of UniProt B2RXH2 (B2RXH2 whole entry, looked up, the tested form may be a part): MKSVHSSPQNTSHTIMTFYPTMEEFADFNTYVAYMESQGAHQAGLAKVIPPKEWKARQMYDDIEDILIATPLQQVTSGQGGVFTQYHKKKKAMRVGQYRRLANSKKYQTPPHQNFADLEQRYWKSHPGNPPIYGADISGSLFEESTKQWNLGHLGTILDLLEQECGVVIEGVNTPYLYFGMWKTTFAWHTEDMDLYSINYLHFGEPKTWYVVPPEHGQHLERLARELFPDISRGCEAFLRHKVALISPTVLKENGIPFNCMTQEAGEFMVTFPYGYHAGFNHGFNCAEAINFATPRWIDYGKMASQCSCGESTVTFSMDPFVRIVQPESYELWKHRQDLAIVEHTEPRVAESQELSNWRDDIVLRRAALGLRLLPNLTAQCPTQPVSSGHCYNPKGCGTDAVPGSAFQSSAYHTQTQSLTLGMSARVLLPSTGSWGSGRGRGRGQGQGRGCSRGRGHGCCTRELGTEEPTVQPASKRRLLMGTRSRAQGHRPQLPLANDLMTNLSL

Compound | Potency | activity change, negative = inhibition
CCOc1cccc(OCCOCCNC(C)(C)C)c1 | inconclusive: 28.2 µM [inhibitor, single point] | –
CCOC(=O)c1cnc(SCC(=O)Nc2cc(OC)cc(OC)c2)nc1N | – | inactive: 7.27%
CC(C)Nc1ncnc2c1cnn2-c1ccccc1 | – | inactive: 1.62%
CC(C)(C)c1ccc(/C=C/C(=O)Nc2ccc3c(c2)OCCO3)cc1 | – | inactive: -14.6%
COc1ccc(C)cc1-n1nnnc1SCC(=O)NC(=O)NCc1ccco1 | – | inactive: -6.49%
Cc1c(N2C(=O)CSC2=S)c(=O)n(-c2ccccc2)n1C | – | inactive: -1.39%
CCCNC(=O)c1ccc2c(=O)n(Cc3ccco3)c(=S)[nH]c2c1 | – | inactive: -4.93%
Cc1ccc(OCC(=O)NC(=S)Nc2cccc(NC(=O)c3ccccc3Cl)c2)cc1 | – | inactive: 9.88%
O=C(O)c1ccc(N2CC3CC(C2)c2cccc(=O)n2C3)c(NS(=O)(=O)c2cccc(C(F)(F)F)c2)c1 (stereo not drawn) | – | inactive: 0.21%
COCCCn1c(SCC(=O)Nc2ccc(C)cc2)nc2ccccc2c1=O | – | inactive: 3.08%
CCN(CC)CCCN(Cc1cc2cc3c(cc2[nH]c1=O)OCO3)C(=S)Nc1ccccc1OC | inconclusive: 31.6 µM [inhibitor, partial curve] | –
COC(=O)c1nc2nc(C)cc(C(F)(F)F)n2n1 | – | inactive: 1.38%
CCOc1ccc(NC(=O)CSc2nnc(Cc3cccn3C)n2-c2ccc(OC)cc2)cc1 | – | inactive: -1.25%
COc1cc(OC)c2ccc(=O)oc2c1C(CCN1CCN(c2ccccc2)CC1)c1ccc2c(c1)OCO2 (stereo not drawn) | inconclusive: 35.5 µM [inhibitor, single point] | –
CCCCCCN(C(=O)CCCCCN1C(=O)NC(c2ccc(-c3ccccc3)cc2)C(C(=O)OCc2ccccc2)=C1C)C(C)C(=O)NCCCC (stereo not drawn) | inactive and active: 35.5 µM | –
CCn1c(CNc2ccc(F)cc2)nnc1SCC(=O)OC1CCCCC1 | – | inactive: -10.2%
O=C(Nc1ccc(-c2cn3c(n2)SCC3)cc1)c1ccc2c(c1)OCO2 | inconclusive: 35.5 µM [inhibitor, partial curve] | –
CCOC(=O)c1nn(-c2ccccc2)c(C(=O)OCC)c1N | inconclusive: 28.2 µM [inhibitor, partial curve] | –
O=C(NC1CCCc2ccccc21)c1cn2ccccc2n1 (stereo not drawn) | inconclusive: 28.2 µM [inhibitor, partial curve] | –
COc1ccccc1OCC(=O)c1[nH]c(C)c(C(C)=O)c1C | – | inactive: -5.46%
Oc1sc(C=Nc2ccccc2)c2ccccc12 | – | inactive: -22.6%
Cc1cc2nc(-c3ccc(SCC(=O)Nc4ccc(S(=O)(=O)N5CCCC5)cc4)nc3)[nH]c2cc1C | inconclusive: 35.5 µM [inhibitor, partial curve] | –
O=C(CCC1CCCN(C(=O)c2ccsc2)C1)N1CCN(c2ccccn2)CC1 (stereo not drawn) | inconclusive: 35.5 µM [inhibitor, single point] | –
O=C(CCNC(=O)c1ccc(Br)o1)NC1CCCC1 | – | inactive: -0.804%
O=C1/C(=C\c2ccco2)NC(=S)N1c1ccccc1 | – | inactive: -3.1%
CCOC(=O)c1c(NC(=O)COC)sc(C)c1C | inconclusive: 31.6 µM [inhibitor, partial curve] | –

Compound | Potency | activity change, negative = inhibition
COc1ccccc1C1(CC(=O)N2CCCCC2)CCOC(C(C)C)C1 (stereo not drawn) | inconclusive: 2.51 µM [inhibitor, full curve] | –
CC(C)c1ccc(C2NC(=O)NC3=C2CCc2ccccc23)cc1 (stereo not drawn) | inconclusive: 22.4 µM [inhibitor, partial curve] | –
N#Cc1cc(-c2ccccc2)nc(NN)n1 | inconclusive: 39.8 µM [inhibitor, single point] | –
Cn1c(N)c(C(=O)COC(=O)c2ccc3c(c2)C(=O)N(c2ccc(Cl)cc2)C3=O)c(=O)n(C)c1=O | – | inactive: -1.53%
O=C(O)c1cccnc1SC1CC(=O)N(c2cccc(C(F)(F)F)c2)C1=O (stereo not drawn) | – | inactive: 1.29%
COc1cccc(C(=O)Nc2nc(C)cs2)c1 | – | inactive: 2.27%
Cc1ccc(N/C=C/C(=O)c2sc(-c3ccccc3)nc2C)cc1 | – | inactive: -2.83%
Cc1ccc(C(C)C)c(OCCCN2CC(C)OC(C)C2)c1 (stereo not drawn) | inconclusive: 22.4 µM [inhibitor, single point] | –
Cn1ccnc1C(O)(c1nnc(-c2ccccc2)o1)C(F)(F)F (stereo not drawn) | – | inactive: -27%
COc1ccc(-c2nn(C)c(=O)c3ccccc23)cc1NC(=O)Cn1nc(C)c2ccccc2c1=O | inconclusive: 39.8 µM [inhibitor, single point] | –
COC(=O)c1cc(C)sc1NC(=O)CC1Nc2ccccc2NC1=O (stereo not drawn) | inconclusive: 28.2 µM [inhibitor, single point] | –
O=C(CCc1ccccc1)NNC(=O)c1ccc(F)cc1 | inconclusive: 28.2 µM [inhibitor, partial curve] | –
CCOc1ccc(NC(=O)CC(NCc2ccccn2)C(=O)O)cc1 (stereo not drawn) | inconclusive: 5.62 µM [inhibitor, full curve, poor fit] | –
N#CC1=C(N)N2C(=C(C#N)C1c1ccc(Br)cc1)Nc1ccccc12 (stereo not drawn) | inconclusive: 25.1 µM [inhibitor, partial curve] | –
Cc1ccc(-c2nc(-c3ccccn3)sc2CC(=O)O)cc1 | inconclusive: 28.2 µM [inhibitor, partial curve] | –
CCOc1cccc(/C=N/Nc2ccc(S(=O)(=O)N(CC)CC)cn2)c1O | – | inactive: -17.1%
CC(C)(C)c1ccccc1OCCCCN1CCCC1 | – | inactive: 1.33%
CCOC(=O)CSC1=N/C(=C\c2cc(OC)c(OC)c(OC)c2)C(=O)N1C | inconclusive: 39.8 µM [inhibitor, single point] | –
CCC(=O)c1ccc(OCC(O)CN2CC(C)OC(C)C2)cc1 (stereo not drawn) | inconclusive: 39.8 µM [inhibitor, single point] | –
S=c1nc(-c2cc(Cl)cc(Cl)c2)[nH][nH]1 | – | inactive: 1.63%
COc1ccc(/C=C/C(=O)Nc2ccc3nc4n(c(=O)c3c2)CCCC4)cc1 | inconclusive: 31.6 µM [inhibitor, partial curve] | –
CCCOc1ccc(/C=C2\SC(=S)N(CC3CCCO3)C2=O)cc1 (stereo not drawn) | – | inactive: 11.8%
CC(CNCC1CCCO1)COc1ccccc1 (stereo not drawn) | inconclusive: 39.8 µM [inhibitor, single point] | –
CC(C)(C)Nc1nc(N2CCCC2)nc(N2CCCC2)n1 | – | inactive: -3.41%
Cc1ccc(NS(=O)(=O)c2cccc(C(=O)NCC3(N(C)C)CCCCC3)c2)cc1 | – | inactive: 4.22%
COc1ccc(C2CC(c3ccccc3)n3nc(NC(=O)c4cccs4)nc3N2)cc1 (stereo not drawn) | inconclusive: 35.5 µM [inhibitor, single point] | –

Compound | Potency | activity change, negative = inhibition
Cc1cnccc1CNC(=O)CC1C(=O)NCCN1CC(C)(C)C (stereo not drawn) | inconclusive: 28.2 µM [inhibitor, single point] | –
COc1ccc(CN(CCN(C)C)Cc2ccccc2)c(OC)c1 | inconclusive: 39.8 µM [inhibitor, single point] | –
CCC1CCCCN1S(=O)(=O)c1ccc(C(=O)Nc2nnc(-c3cccs3)o2)cc1 (stereo not drawn) | inconclusive: 39.8 µM [inhibitor, single point] | –
Cc1c(Cl)cccc1NC(=S)N1CCN(Cc2ccc3c(c2)OCO3)CC1 | inconclusive: 39.8 µM [inhibitor, single point] | –
CCOC(=O)c1cc2c(=O)n3ccccc3nc2n(C(C)C)c1=NC(=O)c1c(-c2c(F)cccc2Cl)noc1C | inconclusive: 39.8 µM [inhibitor, single point] | –
CCCCCn1c(CN2CCN(C(=O)OCC)CC2)nc2c1c(=O)[nH]c(=O)n2C | – | inactive: -8.31%
CC1Cc2ccccc2N1CC(=O)NC(c1ccccc1)c1ccccc1 (stereo not drawn) | – | inactive: -6.92%
O=C(NC1CCCCCCC1)c1ccccc1O | inconclusive: 31.6 µM [inhibitor, single point] | –
O=C1Nc2ccccc2/C1=N\N=C\c1ccc(O)c(O)c1 | active: 7.94 µM | –
CCCOc1ccc(N2C(=O)CC(N3CCC(C(=O)OCC)CC3)C2=O)cc1 (stereo not drawn) | – | inactive: -0.733%
FC(F)(F)c1nc2ccccc2c2nc3ccccc3n12 | inconclusive: 28.2 µM [inhibitor, partial curve] | –
CN(C(=O)CSc1nc(-c2ccccc2)c(-c2ccccc2)o1)C1CCS(=O)(=O)C1 (stereo not drawn) | inconclusive: 35.5 µM [inhibitor, single point] | –
O=C(N/N=C/c1ccccn1)c1cccc(S(=O)(=O)Nc2ccccc2Cl)c1 | inconclusive: 39.8 µM [inhibitor, single point] | –
O=C(NNc1nc(=O)c2cccnc2s1)c1ccccc1O | active: 14.1 µM | –
Cn1cc(-c2nc3ccccc3[nH]2)c2ccccc21 | inconclusive: 28.2 µM [inhibitor, partial curve] | –
Cc1cc(N2CCN(C3CCCC3)CC2)n2c(nc3ccccc32)c1C#N | inconclusive: 39.8 µM [inhibitor, single point] | –
CCOc1ccc(NS(=O)(=O)c2ccc(SC)cc2)cc1 | – | inactive: -4.66%
Clc1ccc(-c2nc3ccccn3c2CN2CCOCC2)cc1 | inconclusive: 22.4 µM [inhibitor, partial curve] | –
Cc1nc(-c2ccc(NC(=O)/C=C\C(=O)O)cc2)cs1 | – | inactive: 1.81%
Cc1cc(NC(=O)CSc2nncn2-c2ccccc2)no1 | – | inactive: -2.05%
O=C(CN1CCN(Cc2ccccc2)CC1)N1CCCc2c1c(=O)oc1ccc(O)cc21 | – | inactive: -8.88%
Fc1cccc(Cl)c1CSc1nnc(COc2cccc3cccnc23)o1 | inconclusive: 35.5 µM [inhibitor, single point] | –
Brc1c(CSc2nc3ccccc3o2)nc2ncccn12 | inconclusive: 28.2 µM [inhibitor, partial curve] | –
COc1cc(C(=O)Nc2nc3ccc4nc(C)sc4c3s2)cc(OC)c1OC | inconclusive: 4.47 µM [inhibitor, full curve] | –
Cc1c(Cl)cccc1Nc1ccccc1C(=O)O | inactive | –
N#CC1=C(N)C(C#N)(C#N)C(c2cccnc2)C2CC(c3ccccc3)CC=C12 (stereo not drawn) | inconclusive: 10 µM [inhibitor, partial curve] | –

— PubChem BioAssay AID2147 (National Center for Advancing Translational Sciences (NCATS), 2009)
